According to PubChem BioAssay AID651820 (National Center for Advancing Translational Sciences (NCATS), 2012):
Values joined by “and” are separate entries in the source; they are usually repeats but may differ in a detail not shown here. Equal entries are not always repeated. The whole screen tested about 340,000 compounds, of which about 12,000 (3.5%) were called active. The inconclusive results got no clear call from the source; some entries with a clear call stand among them for comparison. Calls come from the whole dose curve; as a rule, active = well fitted inhibition curve with a large enough effect; inconclusive = small, poorly fitted or top-dose-only effect, or another doubt; inactive = no such curve, though single readings can be large or run the other way. A potency beside an inconclusive call is a rough fit, not a confirmed value.

assay: qHTS Assay for Inhibitors of Hepatitis C Virus (HCV); settings: Huh7.5.1 HCVcc-Cre (HCVcc is cell-culture hepatitis C virus) infection, luciferase reporter, 44 h; series mostly up to 41.8 µM
In short: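 Infectious HCVcc-Cre (~0.5 moi) was added to cells just after compound, with cells seeded 4 h earlier at 1,000 per well. Luciferase activity after 44 h culture reported infection; substrate was incubated 15 min at room temperature before reading.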
Potency is the fitted concentration of half-maximal effect; tags give direction and shape of the fitted curve.

| SMILES | Potency |
| --- | --- |
| N#C/C(=C\c1ccc[nH]1)C(=O)NC1CC1 | inactive |
| NC(=O)C1=C[C@@H](c2ccc(Br)cc2)C[C@@H](OCc2ccc(CO)cc2)O1 | inactive |
| O=C(/C(=C/O)N=Nc1ccccc1Cl)c1ccccc1 | inconclusive: 10 µM [inhibitor, partial curve] |
| COc1cc(NC(=O)COc2ccc(Cl)cc2)ccc1NC(=O)C(C)C | inconclusive: 31.6 µM [inhibitor, single point] |
| COc1ccc(NC(=O)CSc2nncn2C)cc1 | inactive |
| COc1cc(CNC(C)c2ccccc2)cc(Cl)c1OCC(=O)Nc1ccccc1 (configuration not stated) | active: 11.2 µM |
| COc1cnc(-c2ccccn2)nc1Oc1ccc(Cl)cc1 | inconclusive: 31.6 µM [inhibitor, single point] |
| CC1CN(C(=O)c2cc(S(=O)(=O)N(C)c3ccc(F)cc3)ccc2Cl)CC(C)O1 (configuration not stated) | active: 10 µM |
| COCCC(=O)N1CCC(Oc2ccc(C(=O)N(C)CCCC3CCCC3)cc2)CC1 | inconclusive: 14.1 µM [inhibitor, single point] |
| Nc1nonc1C(=O)NCCNCc1cc(Br)ccc1OCc1ccccc1F | active: 10 µM |
| CN(CC(=O)Nc1ccc(SC(F)F)cc1)C1CCCCC1 | inactive |
| O=C(NNC(=O)c1cc(-c2ccc(Cl)cc2)nc2ccccc12)c1csc(N2CCOCC2)n1 | inconclusive: 11.2 µM [inhibitor, single point] |
| CCc1ccc2c(CC(=O)Nc3cccc(S(=O)(=O)N4CCOCC4)c3)coc2c1 | inconclusive: 3.98 µM [inhibitor, full curve] |
| Cc1ccc(Cn2c(N/N=C/c3ccncc3)nc3c2c(=O)n(C)c(=O)n3C)cc1 | inconclusive: 8.91 µM [inhibitor, partial curve] |
| CCOC(=O)C1CCN(Cc2ccc(OC)c(OCc3ccccc3)c2)CC1 | inconclusive: 14.1 µM [inhibitor, single point] |
| Cn1cc(SCC(=O)Nc2nc3ccccc3s2)c2ccccc21 | inconclusive: 10 µM [inhibitor, partial curve] |
| CC(=O)c1cccc(NC(=O)c2ccc(-c3ccccc3[N+](=O)[O-])o2)c1 | inconclusive: 1.78 µM [inhibitor, partial curve] |
| Cc1c(OCc2ccccc2)cccc1OCc1ccccc1 | inactive |
| CCCCN(C(=O)CSc1nnc(-c2ccc(OC)cc2)n1CC)c1c(N)n(Cc2ccccc2)c(=O)[nH]c1=O | inactive and inconclusive: 31.6 µM [inhibitor, single point] |
| CCN(CC)N=Nc1cccc(NC(C)=O)c1 | inconclusive: 1.58 µM [inhibitor, full curve, poor fit] |
| Cc1ccn2cc(CCNC(=O)C3CC=CCC3C(=O)O)nc2c1 (configuration not stated) | inactive |
| Cc1nc(SCC(=O)NC2CCS(=O)(=O)C2)c2c3c(sc2n1)CCCC3 (configuration not stated) | inconclusive: 7.08 µM [inhibitor, partial curve, poor fit] |
| O=C(/C=C/c1ccc(-c2ccccc2[N+](=O)[O-])o1)c1ccc(F)cc1 | inconclusive: 12.6 µM [inhibitor, single point] |
| COc1cccc(CN(C)C(=O)/C=C/c2ccc(S(=O)(=O)N3CCCCCC3)cc2)c1 | inconclusive: 31.6 µM [inhibitor, single point] |

| SMILES | Potency |
| --- | --- |
| Cc1ccc(NC(=O)c2ccccc2SCC(=O)N2CCCC2)cc1S(=O)(=O)N(C)C | inactive |
| COc1ccccc1C(=O)NC(=S)Nc1ccc(Cc2ccncc2)cc1 | inconclusive: 22.4 µM [inhibitor, single point] |
| COc1ccc(NC(=O)CSc2ccc([N+](=O)[O-])cc2)cc1S(=O)(=O)N1CCOCC1 | inconclusive: 12.6 µM [inhibitor, single point] |
| CC(C)(CNC(=O)c1cccc(F)c1)CNC(=O)c1cccc(F)c1 | inconclusive: 8.91 µM [inhibitor, partial curve] |
| O=C(N/N=C/c1cccc([N+](=O)[O-])c1)c1ccc2nc[nH]c2c1 | inactive |
| Cc1ccc(NC(=O)c2cc3cccc([N+](=O)[O-])c3[nH]2)cc1 | inconclusive: 10 µM [inhibitor, partial curve] |
| CSc1ccccc1NC(=O)CSc1cccc[n+]1[O-] | inactive |
| CN1CCN(CCCc2c3c(cc4c2CCC4)CCC3)CC1 | inconclusive: 6.31 µM [inhibitor, partial curve] |
| COC(=O)C1CC2=C(CCCC2=O)N(c2ccccc2)C1=O (configuration not stated) | inconclusive: 3.98 µM [inhibitor, single point] |
| COc1ccc(Nc2nc(-c3c(C)nc4ncccn34)cs2)cc1 | active: 11.2 µM |
| CCCOc1cccc(-c2nnc(N)s2)c1 | inactive |
| O=C(c1cc(=O)c2ccccc2o1)N1CCN(c2cccc(Cl)c2)CC1 | inconclusive: 31.6 µM [inhibitor, single point] |
| Cc1ccccc1S(=O)(=O)NNC(=O)C(=O)NNc1ccccn1 | inconclusive: 22.4 µM [inhibitor, single point] |
| CC(=O)c1cnc2nc(SCc3ccc(C)cc3)nn2c1C | inactive |
| C=CCn1c(SCC(=O)NCC)nc2sc3c(c2c1=O)CCC3 | inactive |
| COc1ccc(Cl)cc1NC(=O)CCNC(=O)Cn1ccc2ccccc2c1=O | inconclusive: 7.08 µM [inhibitor, partial curve] |
| COCCn1c(SCC(=O)NC2CCCC(C)C2C)nc2ccccc2c1=O (configuration not stated) | inconclusive: 5.62 µM [inhibitor, single point] |
| Cn1c(=O)n(C)c2cc([N+](=O)[O-])c(N3CCN(C(=O)c4ccc(F)cc4)CC3)cc21 | inconclusive: 5.62 µM [inhibitor, partial curve] |
| S=C(NCc1ccco1)Nc1ccc(Cl)cn1 | inconclusive: 11.2 µM [inhibitor, single point] |
| COc1ccc(C(=O)COc2ccc(C)cc2NC(C)=O)cc1 | inconclusive: 12.6 µM [inhibitor, partial curve] |
| COc1cc(NC(=O)Cn2cnc3c(nc4n3CCCCC4)c2=O)cc(OC)c1OC | inactive |
| CC(c1ccc(F)cc1)n1c(-c2ccc3ccccc3n2)n[nH]c1=S (configuration not stated) | inconclusive: 31.6 µM [inhibitor, single point] |
| COc1ccc([C@@H]2Sc3ccccc3N(CCN(C)C)C(=O)[C@@H]2OC(C)=O)cc1 | inactive |
| CCOC(=O)c1ccc2nc3c(cc2c1)CCS3 | inactive |

| SMILES | Potency |
| --- | --- |
| COc1cccc(-c2nnc3n2N=C(c2cc(OC)ccc2OC)CS3)c1 | active: 10 µM |
| COc1cc(/C=C(\C#N)c2nc3ccccc3[nH]2)c([N+](=O)[O-])cc1OCc1ccccc1 | active: 7.08 µM |
| c1cncc(-c2nnc(SCc3cccc4ccccc34)o2)c1 | inconclusive: 12.6 µM [inhibitor, single point] |
| COc1ccc(-[n+]2c(-c3ccccc3)cc(-c3ccccc3)cc2-c2ccccc2)cc1 | inconclusive: 31.6 µM [inhibitor, single point] |
| COc1ccc(-n2c(=S)[nH]c3cc(C(=O)NCc4ccccc4OC)ccc3c2=O)c(OC)c1 | inconclusive: 11.2 µM [inhibitor, partial curve] |
| O=C(CS(=O)(=O)c1ccccc1)c1ccc2c(c1)OCCO2 | inactive |
| COc1ccc(OC)c2sc(N(CCCN(C)C)C(=O)c3ccc(S(=O)(=O)N4CCc5ccccc5C4)cc3)nc12 | active: 3.98 µM |
| COC(=O)[C@@H](N)CS | inactive |
| CN(C)S(=O)(=O)c1cccc(NC(=O)CCCSc2ccccc2)c1 | active: 11.2 µM |
| OC(COc1ccc(Cl)cc1)CN1CCN(c2ccccn2)CC1 (configuration not stated) | inconclusive: 0.355 µM [inhibitor, partial curve, poor fit] |
| COc1ccc(/C(N)=N/OC(=O)CC2CCCCC2)cc1 | inactive |
| Cc1ccccc1C(=O)c1cccn1CC(=O)NCCN1CCN(c2cccc(C)c2C)CC1 | active: 11.2 µM |
| O=S(=O)(Nc1ccc(N2CCOCC2)cc1)c1cccs1 | inactive |
| COc1ccc(C(=O)/C=C/c2cc(OC)c(O)c(OC)c2)c(F)c1 | active: 12.6 µM |
| Cc1ccccc1NC(=O)COc1ccc2oc(=O)cc(C)c2c1 | inactive |
| Cc1cccc2c(=O)cc(C)n(CC(=O)N3CCCCC3)c12 | inconclusive: 35.5 µM [inhibitor, partial curve] |
| C#CCOCCOCCOCCNc1nc(N2CCN(C(=O)CCCCCCCCCCNC(=O)Cn3cc(C[C@@H](C)O)nn3)CC2)nc(N2CCN(C(=O)CCCCCCCCCCNC(=O)[C@H](CCCN=C(N)N)n3cc(C[C@@H](C)CC)nn3)CC2)n1 | inactive |
| Cc1ccc(/C(C#N)=C\c2ccc(N3CCOCC3)o2)cc1 | inconclusive: 0.501 µM [inhibitor, full curve, poor fit] |
| N/C(CCS(=O)(=O)c1ccc(Cl)cc1)=N\OC(=O)c1ccccc1C(F)(F)F | inconclusive: 31.6 µM [inhibitor, single point] |
| COc1ccc(CCNC(=O)C(=O)c2c(C)n(C)c3ccccc23)cc1OC | inactive |
| C=CCOC(=O)C1=C(C)NC(C)=C(C(=O)OCC=C)C1/C=C/c1ccccc1 | inconclusive: 5.01 µM [inhibitor, full curve, poor fit] |
| O=C(COC(=O)c1ccc(O)cc1)c1ccc2c(c1)OCCO2 | inactive |
| Cc1cccc(CN(CC(=O)N/N=C/c2cccs2)S(=O)(=O)c2ccc(Cl)cc2)c1 | active: 11.2 µM |
| CCOc1cc(/C=C2/NC(=S)NC2=O)ccc1OCc1ccc([N+](=O)[O-])cc1 | inconclusive: 31.6 µM [inhibitor, single point] |
